We go through 167 variants from the RNAGym collection of RNA variant scans (doi:10.1093/nar/gkz1192).

The source gives no read counts; variants with many changes may rest on few reads.

B1: CPEB3 Ribozyme (parent)
chain: UAACAGGGGGCCACAGCAGAAGCGUUCACGUCGCAGCCCCUGUCAGAUUCUGGUGAAUCUGCGAAUUCUGCUGUAUAUCUC

Variants of B1 are the subject of the data set. Kind of data set: self-cleavage, relative activity (ratio to wild type); higher = more cleavage; in vitro, sequencing. An outline of the steps: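 CPEB3 self-cleaving ribozyme mutant libraries were made by rounds of error-prone PCR, barcoded, and transcribed in vitro with T7 RNA polymerase for 5 hours at 37°C. Cleavage occurred during transcription and a 15 min DNase I step before EDTA stop. RNAs were reverse transcribed with template switching and Illumina-sequenced, with DNA sequencing mapping barcodes to variants. Relative activity is the variant's cleaved/total read fraction divided by wild type's (minimum 5 reads), averaged across three batches.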
Turning to A18U C23G A77U, the self-cleavage turned out to be 0.28.

As for A18U U25C C50A, the self-cleavage stood at 0.37. Turning to A18U U25C A45G U54A, the self-cleavage came out at 0.19. The value for A18U U25A U26C U31C U41C was 0.26; that for A18U A75G U76C was 0.4. With A18U C27U G30A U51A U72C U80C the figure was 0.21; with A18U U26C U31C U48C U80G, 0.11; with A18U A56G U69A U80C, 1.14.

On to A18U C32U A45G U48C, for which the self-cleavage came to 0.06.

As to A18U U41C U69A U72C, the self-cleavage is 1.02. Take A18U U43C U58C U60C A65G: the self-cleavage turned out to be 0.3. As for A18U C23U A64G A65G, the self-cleavage was found to be 0.05. Turning to A18U G33C U43C U49C U54G A56G, the self-cleavage stood at 0.06. Consider A18U C62A U66C U78C, for which the self-cleavage is 0.15.

On to A18U A45G A56G U60A, for which the self-cleavage is 0.56. A18U U49C U66A U78C U80C: the self-cleavage turned out to be 0.06. Turning to A18U A47U U58A U72G, the self-cleavage was found to be 0.09. With A18U C23U U41C U48C A56G the figure was 0.11; with A18U G46C U58A U72G, 0.02.

As for A18U U49C U78A U80C, the self-cleavage was found to be 0.23.

On to A18U U25A C34G U76C, for which the self-cleavage is 0.05. For A18U U26C G46A A64G A75U, the self-cleavage turned out to be 0.18. As for A18U A64G U69A, the self-cleavage is 0.99. Consider A18U C38U A47G U72A, for which the self-cleavage turned out to be 0.05. Consider A18U G30A U31A U54C U69A, for which the self-cleavage was determined as 0.11.

Regarding A18U G24U U67A, the self-cleavage came to 0.16. Consider A18U C50A U72C U80A, for which the self-cleavage is 0.12. The value for A18U G55U U58A U72C was 0.15; that for A18U U31C U41C U54G U78C U80C was 0.1; that for A18U G33C U43A U69C was 0.08.

Turning to A18U U26C U49C, the self-cleavage is 0.13. Consider A18U U51A U66C, for which the self-cleavage amounted to 0.39.

Turning to A18U U31C A64U, the self-cleavage was determined as 0.16. A18U U26A C32U U41C U43C U49C: the self-cleavage worked out at 0.06. Turning to A18U G19A A21G U41A, the self-cleavage came out at 0.1. Turning to A18U U31C A35C U60A U78C, the self-cleavage is 0.08. On to A18U C29U U67A, for which the self-cleavage was 0.11. The value for A18U U51C C62U was 0.27. Turning to A18U U25C U31A U60C U67C A77G, the self-cleavage came to 0.07.

Turning to A18U C27A U31C U78C, the self-cleavage amounted to 0.35. Regarding A18U U31C C39U C62U A75G, the self-cleavage stood at 0.07.

On to A18U U25C U31C A47U U69A A75G, for which the self-cleavage was 0.06. Turning to A18U U41C G63A U72C, the self-cleavage stood at 0.4. With A18U U43C A64G the figure was 0.1; with A18U C62U G70A, 0.17; with A18U U31C U43C C50U, 0.36. The value for A18U U26C A64G U72A was 0.07; that for A18U G24A U31A U76C A77U was 0.12. With A18U C29A A35G A45G A47G A75G the figure was 0.14. Take A18U U26A G30C U74C: the self-cleavage was determined as 0.24. With A18U U25C U31A A64G the figure was 0.08; with A18U U31C U72G, 0.2; with A18U G30U A35U U43A A45G U60A U78C, 0.04. With A18U A45G U60C C71G the figure was 0.11; with A18U A45G A56U U72A A77G U78C, 0.17.

As to A18U U26A A45G, the self-cleavage worked out at 0.14.

A18U U41A U54G U69A U78A: the self-cleavage turned out to be 0.06.

As for A18U U41C U60C U80A, the self-cleavage was 0.11. With A18U U26C G33A A45G A47C, the self-cleavage is 0.15. On to A18U U25C U51C U54C, for which the self-cleavage was 0.14. Regarding A18U U25A U26G C29A U43C C62G U66C, the self-cleavage amounted to 0.17. With A18U U49C U60C C71G, the self-cleavage was determined as 0.15.

For the variant A18U C37U U41A G55C U69C U72A, the self-cleavage was determined as 0.12. The value for A18U C23U C34U A35U A65G was 0.21; that for A18U U41G U54A A57G U58G A64U C81A was 0.1. A18U C38G A45U C81U: the self-cleavage stood at 0.21. Regarding A18U U31C U69G, the self-cleavage is 0.48.

As for A18U G24A A56G, the self-cleavage is 0.15.

With A18U G33C U43A A45G C59U C62A, the self-cleavage was 0.05. With A18U U26C A45G the figure was 0.68. The value for A18U A45G U67A was 0.18; that for A18U U31A C37G C40U U43C was 0.17; that for A18U U26C A45U A65G A77G was 0.09. With A18U C38G A47G C81U, the self-cleavage came to 0.21. As for A18U C39A U41C, the self-cleavage is 0.12. Take A18U G22C G30A U31C U58C: the self-cleavage is 0.11.

For A18U G24A U25C U43A, the self-cleavage turned out to be 0.25.

Consider A18U A47G U67A, for which the self-cleavage is 0.4.

A18U A65G U67C: the self-cleavage came to 0.2. As for A18U U48C U54C U67C U74A, the self-cleavage amounted to 0.14.

On to A18U U25C U26C A28U, for which the self-cleavage worked out at 0.04. Turning to A18U U25A U31C A57G U66C U72C A77G, the self-cleavage came to 0. For the variant A18U U25C U78A, the self-cleavage came to 0.07. With A18U U25A A56G the figure was 0.11; with A18U A64G U67C, 0.19. On to A18U U25C A47G U69A U78A, for which the self-cleavage was determined as 0.07. As to A18U G30C A56G U69C, the self-cleavage is 0.07.

As for A18U A45G U48C U58C, the self-cleavage turned out to be 0.14. In the case of A18U G36A U48C A64U, the self-cleavage came out at 0.16. For the variant A18U U26A A35U U43A, the self-cleavage came to 0.09.

Turning to A18U U41C A45G A47G U69C U72C, the self-cleavage was determined as 0.11. As for A18U U31A U74C, the self-cleavage is 0.42. Turning to A18U G42A U58C A75G A77G, the self-cleavage was found to be 0.37. Regarding A18U A47G U76A, the self-cleavage turned out to be 0.33.

A18U C27G A45G U51A U72C U78C: the self-cleavage worked out at 0.05. A18U U49C U54A: the self-cleavage is 0.23. For the variant A18U A64G U67A A75U, the self-cleavage came out at 0.1.

A18U U31C U41C U72C: the self-cleavage was determined as 0.14.

A18U U41A A65G: the self-cleavage worked out at 0.18. With A18U C40A C81G the figure was 0.07. With A18U U31C U66A, the self-cleavage came out at 0.13.

As for A18U U41C U49C U51A U54A, the self-cleavage was determined as 0.44. Turning to A18U G30A U41C, the self-cleavage was determined as 0.08.

A18U A47G A56G U72A: the self-cleavage stood at 0.09. For A18U U25C U41A A47G U67C, the self-cleavage was 0.21. With A18U U43A U49C the figure was 0.39; with A18U U25A U31A U41G A47C U51C A77C, 0.17.

On to A18U U43C U54A A57G U60C, for which the self-cleavage amounted to 0.27. Turning to A18U U26C A56U, the self-cleavage is 0.19.

As to A18U C39U U41C U49C, the self-cleavage came out at 0.14.

For the variant A18U U26A U31C, the self-cleavage was 0.43. As for A18U U43G A45U U74A, the self-cleavage is 0.06. With A18U U31A C34U U72C the figure was 0.06. In the case of A18U U26C U58C, the self-cleavage was found to be 0.08.

A18U U31A A56U U60A U74A: the self-cleavage was 0.21. With A18U G33A A47C U80C, the self-cleavage was found to be 0.2.

For the variant A18U A45U A47U A56G, the self-cleavage was determined as 0.06. Regarding A18U U31C U58C, the self-cleavage is 0.16.

With A18U A45U U58C A64G, the self-cleavage amounted to 0.12. As for A18U U48C C62G A65U, the self-cleavage was 0.2. Regarding A18U U48A A56U, the self-cleavage was 0.13.

For the variant A18U G19C U43C C62U U66A G73A, the self-cleavage is 0.08.

Regarding A18U G33A A65G U80C, the self-cleavage was determined as 0.17. Regarding A18U U26C U51C A75U U76C, the self-cleavage is 0.06. As for A18U C44A U54C C68U A75C, the self-cleavage amounted to 0.13. Turning to A18U U43C U69C, the self-cleavage stood at 0.15. The value for A18U U26C G70A C71U was 0.19. Regarding A18U U31A A45G A47G, the self-cleavage was 0.32. Turning to A18U C39A U67A, the self-cleavage was determined as 0.21. Take A18U A45U U54C: the self-cleavage is 0.39. Take A18U U25C U31A U41C A45G A65U: the self-cleavage was 0.06. In the case of A18U U25G U41A G53C A64G, the self-cleavage stood at 0.06. For A18U G24C C37U U41C U78C, the self-cleavage stood at 0.07. For A18U U41G A45U, the self-cleavage was determined as 0.37. On to A18U C32U A65G U67C U78C, for which the self-cleavage is 0.04. On to A18U A64G U66C U74C U78A, for which the self-cleavage came out at 0.22. Regarding A18U U31C U54A U60C U74C, the self-cleavage amounted to 0.21. Take A18U C29U U43C: the self-cleavage came to 0.08. The value for A18U U26A U43C U48C A56G A77G was 0.26.

For A18U U49A U69C U74C, the self-cleavage was found to be 0.47.

Regarding A18U A45U C62A, the self-cleavage is 0.22. In the case of A18U G33A U60C, the self-cleavage was found to be 0.08.

On to A18U C39U U41A, for which the self-cleavage was determined as 0.09.

In the case of A18U U26A A65G, the self-cleavage was 0.42. Consider A18U U25A U67C U80A, for which the self-cleavage turned out to be 0.2.

For the variant A18U C23U U41C A45G U74C, the self-cleavage turned out to be 0.06. A18U U26C G42A A65U U80C: the self-cleavage is 0.06. As for A18U U49G U60A, the self-cleavage worked out at 0.12. With A18U U25A U51A U54A U80C the figure was 0.07; with A18U U26C U41C U43C U69C U74C U78G, 0.17. Turning to A18U C40U A77G, the self-cleavage stood at 0.15. As for A18U A64G U76C, the self-cleavage is 0.31. With A18U C27G A45G U49C U51A U72C U78C the figure was 0.13; with A18U C40A C50A U72A A75G, 0.06.

Turning to A18U U31A C68U, the self-cleavage worked out at 0.17. Take A18U U31A U41A A56G A75G: the self-cleavage was 0.28. With A18U A57G U80C the figure was 0.4; with A18U C37U U41C U58C, 0.1. Regarding A18U A56U U72C, the self-cleavage worked out at 0.25. In the case of A18U G30U U69A, the self-cleavage was found to be 0.12. As to A18U U25C A28C U60A U69A U80A, the self-cleavage came out at 0.3.

Consider A18U G19A A20U G33U, for which the self-cleavage is 0.15. In the case of A18U C27A C34G U72C, the self-cleavage came to 0.11. Regarding A18U G33A C40U U58C, the self-cleavage worked out at 0.19.

Regarding A18U U41A U54C U67C, the self-cleavage amounted to 0.11.

Take A18U U51C A64U U78C: the self-cleavage is 0.33. On to A18U C32A A45U U49C A56G, for which the self-cleavage was found to be 0.05.
